Measurements: PubChem BioAssay AID602310 (National Center for Advancing Translational Sciences (NCATS), 2012)
About 310 (0.076%) of roughly 410,000 compounds were called active. Inconclusive results, whose numbers are uncertain, are shown with a selection of clear calls. The call rests on the fitted dose curve; in most records, active means well fitted curve in the direction sought with a large enough effect; inconclusive means small, poorly fitted or top-dose-only effect; inactive means flat fitted curve, though single readings scatter. Where the call is inconclusive, the potency comes from a doubtful curve fit.

Molecular target: DNA dC->dU-editing enzyme APOBEC-3G (Homo sapiens) (UniProt Q9HC16)
Assay: qHTS for Inhibitors of Vif-A3G Interactions: qHTS; further: nearly all actives have a fitted effect of over 60% in size;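 on activity, negative = active: hits raise eYFP signal because A3G escapes Vif-driven loss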
Conditions: HeLa A3G-eYFP + Vif (tagged APOBEC3G with the HIV-1 protein that degrades it), YFP fluorescence, overnight; series mostly up to 46.1 µM; activity, negative = active: at the top concentration
Method in brief: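 Read-out is eYFP fluorescence (Ex 488/Em 500-530) from Vif-expressing HeLa A3G-eYFP cells; more signal means A3G escaped Vif-mediated degradation. Cells plated overnight, compound pinned in, incubated overnight at 37 deg C.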
On the % scale 0 is the no-effect control and ±100 the full control effect; potency means the concentration at half of the fitted maximal effect; tags describe the fitted curve by direction and shape.

Chain of UniProt Q9HC16 (Q9HC16 whole entry, looked up): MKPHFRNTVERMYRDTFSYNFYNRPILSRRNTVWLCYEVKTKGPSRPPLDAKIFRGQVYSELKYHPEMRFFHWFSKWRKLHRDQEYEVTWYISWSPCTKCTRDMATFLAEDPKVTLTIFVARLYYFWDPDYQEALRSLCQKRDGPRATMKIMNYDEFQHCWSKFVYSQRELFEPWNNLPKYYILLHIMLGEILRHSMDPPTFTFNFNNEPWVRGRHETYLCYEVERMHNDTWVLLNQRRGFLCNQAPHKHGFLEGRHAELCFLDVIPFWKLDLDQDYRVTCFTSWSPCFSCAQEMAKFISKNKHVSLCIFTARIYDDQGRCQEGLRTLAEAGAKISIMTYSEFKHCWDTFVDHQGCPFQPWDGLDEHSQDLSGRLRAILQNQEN

Structure (SMILES) | Potency | activity, negative = active
Cc1ccc2nc(NC(=O)CN(C)S(=O)(=O)c3cccc4nsnc34)sc2c1 | inconclusive: 8.91 µM [inhibitor, partial curve, poor fit] | 
CC(=O)C1=C(c2ccc(Cl)cc2)N(C(C)=O)n2c(nnc2C2CCCCC2)S1 |  | inactive: 2.13%
CCOC(=O)c1nc(C)nc(Sc2n[nH]c(-c3ccccc3)n2)c1C | inconclusive: 35.5 µM [inhibitor, single point] | 
Cc1ccc(N(CC(=O)Nc2cccc(Cl)c2)S(=O)(=O)c2cccs2)cc1 |  | inactive: -4.27%
CCOC(=O)N1CCN(C(c2cccnc2)c2ccc3cccnc3c2O)CC1 (centres undefined) | inconclusive: 35.5 µM [inhibitor, single point] | 
O=C1OC(c2cccs2)=N/C1=C\c1ccc(-c2ccccc2Cl)o1 | inconclusive: 35.5 µM [inhibitor, single point] | 
CCOC(=O)c1c(C)[nH]c(C)c1C(=O)COC(=O)/C=C/c1ccc(OC)cc1 | inconclusive: 10 µM [inhibitor, partial curve] | 
COc1cc(OC)c2cc(C(=O)N/N=C/c3cccc(OC)c3O)[nH]c2c1 | inconclusive: 17.8 µM [inhibitor, single point] | 
O=C(C=Cc1ccccc1F)c1ccccc1 |  | inactive: -26.7%
COC(=O)C1=NN(c2ccccc2)C2(S1)SC(C(C)=O)=C(C)N2c1ccccc1 (centres undefined) |  | inactive: -0.514%
O=C(Nc1ccc(Cl)cc1C(=O)NCc1cccnc1)c1ccc(Cl)cc1Cl | inconclusive: 10 µM [inhibitor, partial curve] | 
Fc1ccc(/C=N/NC2=Nc3cccc4cccc2c34)cc1 | inconclusive: 20 µM [inhibitor, single point] | 
O=C1/C(=C\c2cccs2)Sc2ccc3ccccc3c21 | inconclusive: 22.4 µM [inhibitor, single point] | 
O=C(Nc1ccc2nc3n(c(=O)c2c1)CCCCC3)C(=O)Nc1ccccc1F | inconclusive: 25.1 µM [inhibitor, partial curve, poor fit] | 
O=C(Cc1ccc(Cl)cc1)Oc1cccc2cccnc12 | inconclusive: 25.1 µM [inhibitor, single point] | 
Cc1ccc(N/C=C/C(=O)c2ccco2)c(O)c1 | inconclusive: 10 µM [inhibitor, partial curve, poor fit] | 
COc1ccc(/C=N/Nc2nc(-c3cccc(S(=O)(=O)N4CCCC4)c3)cs2)c(OC)c1 |  | inactive: 1.52%
C=CCc1c(C)nc(-c2ccccc2)nc1Nc1ccccc1O | inconclusive: 17.8 µM [inhibitor, partial curve, poor fit] | 
CC1(C)CC(=O)C(C(C2=C(O)CC(C)(C)CC2=O)c2ccc([N+](=O)[O-])cc2)C(=O)C1 (centres undefined) |  | inactive: 1.77%
